Source: PubChem BioAssay AID1508642 (National Center for Advancing Translational Sciences (NCATS), 2021)
About 200 (0.47%) of roughly 43,000 compounds were called active. Another 12% or so got no clear call; they are omitted. Calls follow the shape of the dose curve; as a rule, active = well fitted cell-killing curve with a large enough effect; inconclusive = small, poorly fitted or top-dose-only effect, or effect the other way; inactive = flat fitted curve, though single readings scatter. This is one part of the list.

Test: Cell viability qHTS assay in S16 Pmp22-F2sN cells; also: nearly all actives have a fitted effect of over 65% in size
Conditions: S16 Pmp22-F2sN Schwann cells viability, CellTiter-Glo, 24 h; series mostly up to 57.5 µM; activity change, negative = cytotoxicity: at the top concentration
How it was run: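 Used to flag compounds lowering reporter output through toxicity, this quantitative HTS measures ATP-based CellTiter-Glo luminescence in S16 Pmp22-F2sN Schwann cells after 24 h compound exposure at 37C.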
% is scaled to controls: 0 for no effect and ±100 for the full control effect.

| Compound | activity change, negative = cytotoxicity |
| --- | --- |
| CCN1C(=O)c2ccccc2S(=O)c2ccc(C(=O)N3CCN(c4ccccc4OC)CC3)cc21 (stereo unspecified) | inactive: 16.1% |
| COc1cccc(CNC(=O)CCCCCn2c(=O)[nH]c3cc(OC)c(OC)cc3c2=O)c1 | inactive: -7.83% |
| CCOc1ccccc1C(=O)Nc1ccc(S(=O)(=O)Nc2ncccn2)cc1 | inactive: -17.1% |
| Cc1cccc(Cc2c(C)nc3nc(SCc4ccccc4F)nn3c2C)c1 | inactive: 14.1% |
| Cc1cc2c(n1-c1ccc(C(=O)NCc3ccc(OC(C)C)cc3)cc1)CCCC2 | inactive: -18.6% |
| COc1ccccc1NC(=O)CSc1oc(-c2ccccc2)nc1S(=O)(=O)c1ccccc1 | inactive: -25.4% |
| COc1ccc2c(c1)c1c(c(=O)n(-c3cccc(C)c3)c(=O)n1CC(=O)NCC1CCCO1)n2C (stereo unspecified) | inactive: 3.9% |
| COc1ccccc1CNC(=O)CCCn1c(=O)c2ccccc2n(Cc2ccccc2C#N)c1=O | inactive: -0.476% |
| CC(C)c1cc(-c2nc(-c3ccc(Br)cc3)no2)n[nH]1 | inactive: -28.8% |
| COc1ccc2[nH]c(=O)c(CN(C(=O)c3cccc(Cl)c3)c3cccc(C)c3)cc2c1 | inactive: -0.168% |
| CCN1CCN(c2ncc3c(n2)CCN(Cc2ccc(OC)c(OC)c2)C3)CC1 | inactive: 8.96% |
| CCCN1CCN(CCNC(=O)Nc2ccccc2OCC)CC1 | inactive: 10.2% |
| Cc1cc2c(n1-c1ccc(C(=O)NCCc3ccccc3)cc1)CCC(C)C2 (stereo unspecified) | inactive: -3.63% |
| CCCN(Cc1cccs1)C(=O)Nc1ccc(Br)cc1F | inactive: -18.5% |
| Cc1cccc(NS(=O)(=O)c2ccc3c(c2)OCC(C(=O)N2CCCC2)O3)c1C (stereo unspecified) | inactive: 1.11% |
| CCc1nn(CCCC(=O)NCc2cc(Br)ccc2OC)c(=O)c2cc3occc3n12 | inactive: -9.2% |
| COc1cccc(C(=O)Nc2cccc(C(=O)OCc3cc(=O)n4c5c(sc4n3)CCCC5)c2)c1 | inactive: -6.81% |
| CCOc1ccc(NC(=O)c2cc3cc4cc(OC)ccc4nc3s2)cc1 | inactive: 0.675% |
| Cc1ccc(S(=O)(=O)c2cn(CC(=O)Nc3ccc4c(c3)OCO4)c3ccccc3c2=O)cc1C | inactive: -0.312% |
| COc1ccccc1-n1c(=O)c2c3c(sc2n(Cc2ccccc2F)c1=O)CN(C(C)=O)CC3 | inactive: 21.7% |
| O=C(NCCS(=O)(=O)N1CCN(c2ccc(F)cc2)CC1)C1CC(=O)N(c2ccccc2)C1 (stereo unspecified) | inactive: 7.31% |
| CCOC(=O)CSc1nc2c(sc3cccc(F)c32)c(=O)n1Cc1ccc(OC)cc1 | inactive: -0.353% |
| COc1ccc2cc(CNc3ccc(C)cc3)c(=O)n(CC(=O)Nc3cccc(C(F)(F)F)c3)c2c1 | inactive: 11% |
| Cc1ccc(-c2nnc(Nc3ccc(O)cc3)c3ccccc23)cc1S(=O)(=O)N1CCCCC1 | inactive: -5.58% |

| Compound | activity change, negative = cytotoxicity |
| --- | --- |
| O=c1c2cccnc2n(Cc2cccc(F)c2)c(=O)n1Cc1ccccc1Cl | inactive: 29.9% |
| Cc1ccc(CN2C(=O)N(c3ccccc3)C(=O)C2CC(=O)Nc2ccccc2)cc1 (stereo unspecified) | inactive: 7.52% |
| COc1cc(OC)c(N(C)C(=O)Cn2ncc3c(=O)oc4ccccc4c32)cc1Cl | inactive: -0.129% |
| COCCNC(=O)c1c(NC(=O)c2cc(=O)c3cc(Cl)ccc3o2)sc2c1CCCC2 | inactive: -2.5% |
| COC(=O)c1ccccc1NC(=O)N1CCC(n2c(C)nc3cccnc32)CC1 | inactive: -3.92% |
| Cc1ccc(NC(=O)N2CCN(C)c3ncccc32)cc1C | inactive: 12.1% |
| O=C(CN1C(=O)COc2ccc(S(=O)(=O)N3CCCCCC3)cc21)NCCc1ccccc1 | inactive: 7.21% |
| CC(=O)N1CCN(c2csc3ccc(Br)cc3c2=O)CC1 | inactive: 2.79% |
| Cc1ccc(CNC(=O)c2cc(=O)c3cc(C)cc(C)c3o2)cc1 | inactive: 10.2% |
| COC(=O)c1ccccc1NC(=O)c1cnc2sc(N3CCOCC3)nn2c1=O | inactive: 7.63% |
| CCC(C)NC(=O)CSc1nc(-c2ccc(F)cc2)cc(C(F)(F)F)n1 (stereo unspecified) | inactive: 28.6% |
| CCc1cccc(C)c1NC(=O)Cn1cc2c(n1)CCCCC2 | inactive: -13.2% |
| COc1ccccc1NC(=O)Cn1nnc(C(=O)Nc2ccccc2Br)c1N | inactive: 15.1% |
| CCOc1ccc(NC(=O)CCn2cccn2)cc1 | inactive: 2.41% |
| CCCCOC(=O)/C(C#N)=C\c1ccc(-c2ccc(Cl)cc2)o1 | inactive: 3.76% |
| CCOc1ccc(NC(=O)C2CCN(S(=O)(=O)c3c(C)noc3/C=C/c3ccco3)CC2)cc1 | inactive: 7.02% |
| CCOC(=O)c1ccccc1NC(=O)N1CC(C)Oc2ccc(C)cc21 (stereo unspecified) | inactive: 0.675% |
| COc1cc(NC(=O)C(=O)Nc2ccc3nc4n(c(=O)c3c2)CCCCC4)cc(OC)c1OC | inactive: 20.1% |
| CCc1ccc(CN(C(=O)Nc2cccc(Cl)c2)c2ccccn2)cc1 | inactive: 8.79% |
| CCOC(=O)Cn1c(=O)oc2cc(S(=O)(=O)NC(C)c3ccccc3)ccc21 (stereo unspecified) | inactive: 7.9% |
| COc1ccccc1CNC(=O)c1ccc(-n2c(C)cc3c2CCCC3)cc1 | inactive: -20% |
| Cc1c(Cl)cccc1NS(=O)(=O)c1ccc(NS(=O)(=O)c2ccc3c(c2)OCCO3)cc1 | inactive: 2.92% |
| COc1ccc(Cl)cc1NC(=O)c1cnc(N2CCCCC2)c2ccccc12 | inactive: -6.67% |
| O=C(c1ccccc1F)N1c2nc(-c3ccco3)nn2C2(CCCCC2)[C@@H]2CCCC[C@@H]21 | inactive: 7.88% |

| Compound | activity change, negative = cytotoxicity |
| --- | --- |
| COCCNC(=O)c1cnn(-c2cccc(C)c2)c1-n1cccc1 | inactive: -1.58% |
| COc1cc2ncc3c(-c4ccccc4)nn(CC(=O)NC4CCCCC4)c3c2cc1OC | inactive: 0.745% |
| CC1CCN(S(=O)(=O)c2cc(C(=O)NCc3ccccc3)n(C)c2)CC1 | inactive: 4.71% |
| Cc1nc(N2CCCC2)ncc1C(=O)NCc1ccc(F)cc1 | inactive: 2.64% |
| Cc1cn2c(=O)c(S(=O)(=O)Nc3ccc(N4CCOCC4)cc3)c(C)nc2s1 | inactive: 1.19% |
| Cc1cc(N2CCC(C(=O)Nc3ccccc3Cl)CC2)n2nc(C)c(-c3ccc(Cl)cc3)c2n1 | inactive: 2.34% |
| Fc1cccc(-c2nnn3c2nc(NCc2ccc4c(c2)OCO4)c2ccccc23)c1 | inactive: 5.48% |
| COc1ccc(C2=C(C)C(N3CCN(c4ccc(OC)cc4)CC3)=NS2(=O)=O)cc1 | inactive: 6.88% |
| CN(C(=O)c1ccc2c(c1)N(Cc1ccc(F)cc1)C(=O)c1ccccc1S2(=O)=O)C1CCCCC1 | inactive: 3.72% |
| COc1ccc(C(=O)NNc2ncnc3c2cnn3-c2ccc(C)cc2C)cc1 | inactive: 6.66% |
| CCC(CC)C(=O)Nc1nnc(S(=O)(=O)N2c3ccccc3CC2C)s1 (stereo unspecified) | inactive: 6.55% |
| O=C(Nc1ccc(-c2nc3cc(NC(=O)c4ccc(Cl)cc4)ccc3o2)cc1)c1ccc(Cl)cc1 | inactive: 1.27% |
| COc1ccc(-c2cc(C(F)(F)F)n3nc(C(=O)Nc4sc5c(c4C(=O)OC(C)C)CCC(C)C5)cc3n2)cc1 (stereo unspecified) | inactive: 23.7% |
| CCCN(CCC)C(=O)C1CCCN(S(=O)(=O)c2cc(Br)cc3c2N(C(=O)CC)CC3)C1 (stereo unspecified) | inactive: 3.36% |
| CCc1ccc(C(=O)NC2=NC(c3cc(OC)ccc3OC)CC(=O)N2)cc1 (stereo unspecified) | inactive: -1.11% |
| Cc1ccc(-c2nn(C)c(=O)c3ccccc23)cc1S(=O)(=O)NCCCN(C)C | inactive: 3.09% |
| CC(=O)Nc1ccc(NC(=O)C(c2ccccc2)N2Cc3ccccc3C2=O)cc1 (stereo unspecified) | inactive: -2.01% |
| COC(=O)c1ccc(-c2nc(-c3ccc(OC)c(OC)c3)no2)cc1 | inactive: 6.92% |
| O=S(=O)(c1ccc(Br)cc1)c1nnn2c1nc(NCCc1ccccc1)c1sccc12 | inactive: -2.62% |
| Cc1ccc(CCNC(=O)CCn2nc(-c3ccc(Cl)cc3)ccc2=O)cc1 | inactive: 3.66% |
| Cc1nc2ccc(S(=O)(=O)NC(C(=O)N3CCN(c4cccc(Cl)c4)CC3)C(C)C)cc2s1 (stereo unspecified) | inactive: 14.7% |
| COc1ccc(N2C(=O)CCSC23C(=O)N(Cc2ccc(F)cc2)c2ccccc23)cc1 (stereo unspecified) | inactive: 10.4% |
| O=C(c1ccc2c(c1)N(Cc1ccc(Cl)cc1)C(=O)c1ccccc1S2(=O)=O)N1CCN(Cc2ccccc2)CC1 | inactive: 10.6% |
| Cc1cc(C)cc(NC(=O)CCc2c(C)nc3c(c2C)c(=O)n(C)c(=O)n3C)c1 | inactive: 6.62% |

| Compound | activity change, negative = cytotoxicity |
| --- | --- |
| Cc1ccc(NC(=O)c2sc3nc(-c4ccncc4)ccc3c2N)cc1 | inactive: 0.96% |
| CCOc1ccc(S(=O)(=O)c2c(C(=O)c3ccc(C)c(C)c3)cnc3ccccc23)cc1 | inactive: 4.96% |
| COc1cc(NC(=O)C(NS(=O)(=O)c2ccc3c(c2)CCCC(=O)N3)C(C)C)cc(OC)c1 (stereo unspecified) | inactive: 0.39% |
| COC(=O)c1sccc1S(=O)(=O)N(CC(=O)Nc1ccc(C)c(F)c1)c1ccc(C)c(C)c1 | inactive: -20.7% |
| Cc1ccccc1Cn1c(=O)n(CCc2ccccc2)c(=O)c2sc3ccccc3c21 | inactive: -1.09% |
| Cc1ccccc1C(=O)Nc1nnc(S(=O)(=O)N(C)c2ccc(Cl)cc2)s1 | inactive: -12.1% |
| O=C(COc1ccc(F)cc1)Nc1ccc(S(=O)(=O)N(Cc2ccccc2)c2ccccc2)cc1 | inactive: -3.96% |
| CCc1ccc(CNC(=O)c2sc3nc[nH]c(=O)c3c2C)cc1 | inactive: 2.5% |
| COc1ccc(-c2cc(C(C)=O)c(C)n2CCC(=O)Nc2ccc(C)c(Cl)c2)cc1 | inactive: -15.1% |
| CCCNc1ncnc2c1c(-c1ccccc1)cn2-c1ccc(OCC)cc1 | inactive: -18.5% |
| O=c1cc(CSc2ccccc2)[nH]c2ccc(F)cc12 | inactive: -28.5% |
| COc1ccc(NC(=O)CCn2c(-c3ccc(F)cc3)cc(C(C)=O)c2C)c(OC)c1 | inactive: -11.8% |
| COc1ccc(OC)c(CNc2ncnc3c2nc2n3CCCC2)c1 | inactive: -2.53% |
| CCN(C(=O)Cc1c(C(=O)O)c(C)cn1C)c1cccc(Cl)c1 | inactive: -3.16% |
| CCc1c(C)nc(SCc2nc(-c3ccccc3C)no2)[nH]c1=O | inactive: -1.17% |
| Cc1ccc(NC(=O)c2c(C)oc3ccc(O)c(CN(C)Cc4ccccc4)c23)c(C)c1 | inactive: -26.7% |
| CCc1ccc(Nc2nnc(-c3cc4cc(OC)ccc4oc3=O)s2)cc1 | inactive: 4.82% |
| CCc1cccc(C)c1NC(=O)c1cc(S(=O)(=O)N2CCCCCC2)cn1C | inactive: -0.811% |
| O=C(NC1CC1)c1ccc(Cn2c(SCc3ccc(F)cc3)nc3cccnc32)cc1 | inactive: -10.5% |
| COc1ccc(-c2cc(C(F)(F)F)nc(SCCC(=O)Nc3cccc(OC)c3)n2)cc1 | inactive: -8.47% |
| Cc1cccc(N2CCN(C(=O)c3cccn3-c3nnc(N4CCCCC4)s3)CC2)c1C | inactive: -29.2% |
| CCc1ccc(NC(=O)c2ccc(NS(=O)(=O)c3c(C)noc3C)cc2)cc1 | inactive: -6.96% |
| CCOC(=O)c1ccccc1NC(=O)c1cc2c(s1)-c1ccccc1SC2 | inactive: -0.269% |
| CC1=C(c2ccc(Cl)cc2)S(=O)(=O)N=C1N1CCC(C(=O)NCCc2ccco2)CC1 | inactive: -19.1% |
